Data as given in PubChem BioAssay AID504832 (National Center for Advancing Translational Sciences (NCATS), 2011).
The whole screen tested about 310,000 compounds, of which about 18,000 (5.8%) were called active. This list was built around the results that the source calls inconclusive (neither active nor inactive); the mix of calls is not that of the screen. Calls follow the shape of the dose curve; as a rule, active = well fitted inhibition curve with a large enough effect; inconclusive = small, poorly fitted or top-dose-only effect, or another doubt; inactive = no such curve, though single readings can be large or run the other way. Potencies of inconclusive entries are left out as doubtful fits.
Potency is read from the fitted curve at half-maximal effect; tags tell the direction and shape of the fitted curve.

Experiment: Primary qHTS for delayed death inhibitors of the malarial parasite plastid, 48 hour incubation
Conditions: P. falciparum luciferase growth in erythrocytes; series mostly up to 28.7 µM
How it was run: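 Erythrocytes infected with P. falciparum carrying an integrated firefly luciferase reporter (2% hematocrit, 0.1% parasitemia final) were exposed to compounds in RPMI 1640 with 0.5% Albumax at 37 C, 5% CO2. Growth inhibition was scored as reduced luminescence.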
In the case of `COc1ccc2[nH]c(C)c(-c3csc(N)n3)c2c1`, the Potency is reported as “inactive”. With `CN1CCc2cc(O)c(O)cc2C(c2ccccc2)C1` (stereo unspecified) the Potency was inconclusive [inhibitor, single point]. With `O=C(C1=C[C@@H](c2ccc(C(F)(F)F)cc2)C[C@@H](OCc2ccc(CO)cc2)O1)N1CCOCC1` the Potency was inconclusive [inhibitor, single point]. In the case of `CCN1C(=O)[C@H]2[C@@H](c3ccc(C)cc3)N3C(=O)N(c4ccccc4)C(=O)[C@@]3(CC)[C@H]2C1=O`, the Potency is reported as “inactive”. With `COc1ccc2cc(C(=O)N3CCN(c4ccccc4OC)CC3)[nH]c2c1` the Potency was inconclusive [inhibitor, single point]. In the case of `CN(C(=O)CSc1nnc(C(F)(F)F)n1N)C1CCS(=O)(=O)C1` (stereo unspecified), the Potency is reported as “inactive”. In the case of `Cc1cc(-c2nnc3n2N=C(c2ccc(F)cc2)CS3)n[nH]1`, the Potency is reported as “inactive”. In the case of `NC(N)=NC(N)=Nc1ccc(O)cc1`, the Potency is reported as inconclusive [inhibitor, single point]. For `COC(=O)c1cc(S(=O)(=O)N2CCN(c3ccc([N+](=O)[O-])cc3)CC2)c[nH]1`, the Potency was “inactive”. For `CCn1c(CCC(=O)Nc2cc(F)ccc2C)nc2cc(S(=O)(=O)N(C)C)ccc21`, the Potency was inconclusive [inhibitor, single point]. In the case of `CC(=O)c1ccc(OCCCC(=O)Nc2cc(S(=O)(=O)N3CCCCC3)ccc2C)cc1`, the Potency is reported as inconclusive [inhibitor, single point]. For `Clc1ccccc1Cn1nnc2c(NCC3CC3)ncnc21`, the Potency was inconclusive [inhibitor, partial curve]. With `C[N+](C)(C)CCc1ccc(O)cc1` the Potency was inconclusive [inhibitor, full curve, poor fit]. For `COc1ccc(C(C(=O)NC2CCCC2)N(C(=O)c2snc(C(N)=O)c2N)c2ccccc2OC)cc1OC` (stereo unspecified), the Potency was active: 9.28 µM. With `CC(CSc1nnnn1-c1ccccc1)Cn1c(N2CCN(C)CC2)nc2c1c(=O)[nH]c(=O)n2C` (stereo unspecified) the Potency was inconclusive [inhibitor, partial curve, poor fit]. For `COc1ccc(C(C)NC(=S)NC2CCCC2)cc1OC` (stereo unspecified), the Potency was active: 1.85 µM. In the case of `Cc1ccc(-n2nc(-c3ccccc3)cc2Nc2ccccc2N)cc1`, the Potency is reported as inconclusive [inhibitor, single point]. With `OCc1cc(-c2ccccn2)no1` the Potency was inconclusive [inhibitor, single point]. For `CCOc1ncccc1C(=O)OCC(=O)NC(=O)NC(C)C`, the Potency was inconclusive [inhibitor, single point]. In the case of `COc1ccc(NC(=O)C2=CC(c3ccco3)=NS(=O)(=O)N2C)cc1`, the Potency is reported as “inactive”. In the case of `O=C(NCC1CCCO1)c1nn2c(C(F)(F)F)cc(-c3ccc(Br)o3)nc2c1Br` (stereo unspecified), the Potency is reported as inconclusive [inhibitor, partial curve, poor fit]. With `O=C(c1ccc2c(=O)n(Cc3ccccc3Cl)c(=S)[nH]c2c1)N1CCOCC1` the Potency was inconclusive [inhibitor, single point]. For `CCOc1ccccc1N1CC(C(=O)Nc2ccccc2N2CCOCC2)CC1=O` (stereo unspecified), the Potency was inconclusive [inhibitor, partial curve]. For `CCCNC(=O)CSc1nc2ccc(OCC)cc2s1`, the Potency was inconclusive [inhibitor, partial curve]. For `COc1ccc(-c2nn(-c3ccccc3)cc2C(=O)O)cc1N`, the Potency was inconclusive [inhibitor, full curve, poor fit]. With `Clc1ccccc1Cn1nnc2ccccc21` the Potency was “inactive”. For `COc1ccc(C(=O)Nc2nc(CC(=O)NCCc3ccccc3OC)cs2)cc1`, the Potency was inconclusive [inhibitor, single point]. For `Cc1nc(/C(N)=N/OC(=O)c2cccc(Cl)c2)c(C(F)(F)F)o1`, the Potency was “inactive”. For `CCCCc1cc(=O)oc2c(C)c(OCC(=O)NCc3ccccn3)ccc12`, the Potency was inconclusive [inhibitor, full curve, poor fit]. With `Cc1cnc(C(=O)OCC(=O)Nc2ccc(C)c(S(=O)(=O)N(C)C)c2)cn1` the Potency was inconclusive [inhibitor, single point]. With `O=C(O)/C=C/C(=O)Nc1ccc(SC(F)(F)F)cc1` the Potency was “inactive”. For `CN1CCCCCC1C(=O)N1CCC(N2CCC(C(=O)N3CCOCC3)CC2)CC1` (stereo unspecified), the Potency was “inactive”. For `Cc1ccc(C(C(=O)NCc2ccco2)N(C(=O)CNC(=O)c2cccs2)c2ccc(C)cc2C)cc1` (stereo unspecified), the Potency was inconclusive [inhibitor, single point]. For `CC(=O)c1c(C(C)=O)c(C)n(-c2nc(-c3ccccc3)c(C)s2)c1C`, the Potency was inconclusive [inhibitor, single point]. In the case of `CCOC(=O)c1sc(NS(=O)(=O)c2ccccc2Cl)nc1C`, the Potency is reported as “inactive”. For `COc1ccc([C@@H](NC(=O)OC(C)(C)C)C(=O)OC(C)(C)C)cc1`, the Potency was inconclusive [inhibitor, full curve, poor fit]. In the case of `CCCn1c(SCC(=O)N2CCCC2)nc2c1c(=O)n(C)c(=O)n2C`, the Potency is reported as “inactive”. With `O=C(NC(=S)N1CCN(c2ccc(F)cc2)CC1)C12CC3CC(CC(C3)C1)C2` the Potency was inconclusive [inhibitor, single point]. In the case of `CC(C)C(O)(C#CCN1CCCC1)c1ccccc1` (stereo unspecified), the Potency is reported as inconclusive [inhibitor, full curve, poor fit]. With `CC(=O)c1c(C)oc2ccc(N(C(C)=O)S(=O)(=O)c3cccc4cccnc34)cc12` the Potency was inconclusive [inhibitor, single point]. With `Cc1ccc(S(=O)(=O)NC2CC(C)(C)NC(C)(C)C2)c(C)c1C` the Potency was “inactive”. In the case of `Cc1ccccc1OCCn1cc(C(=S)N2CCN(C)CC2)c2ccccc21`, the Potency is reported as inconclusive [inhibitor, single point]. In the case of `COc1ccc(C(=O)c2ccc(Cl)cc2)cc1`, the Potency is reported as “inactive”. In the case of `O=S(=O)(NNc1ccc(Cl)nn1)c1ccc(F)cc1`, the Potency is reported as “inactive”. With `NCCNCCNCCNCCN` the Potency was “inactive”. With `CCC(=O)c1ccc(OCC(O)CN2CCN(S(=O)(=O)N3CCCCC3)CC2)cc1` (stereo unspecified) the Potency was inconclusive [inhibitor, single point].
